According to PubChem BioAssay AID504332 (National Center for Advancing Translational Sciences (NCATS), 2011):
Out of some 350,000 compounds screened, about 31,000 (8.9%) were called active. The inconclusive results got no clear call from the source; some entries with a clear call stand among them for comparison. The call rests on the fitted dose curve; in most records, active means well fitted inhibition curve with a large enough effect; inconclusive means small, poorly fitted or top-dose-only effect; inactive means no such curve, though single readings can be large or run the other way. Potencies beside an inconclusive call are fits to weak or partial responses and may not hold up.

target: Histone-lysine N-methyltransferase EHMT2 (Homo sapiens) (UniProt Q96KQ7); test: qHTS Assay for Inhibitors of Histone Lysine Methyltransferase G9a; details: G9a H3K9 monomethylation, AlphaScreen, 2 h; activity, negative = inhibition: at 59 µM (top of the series) unless noted; further: nearly all actives have a fitted effect of over 75% in size
Chain of UniProt Q96KQ7 (Q96KQ7 whole entry, looked up): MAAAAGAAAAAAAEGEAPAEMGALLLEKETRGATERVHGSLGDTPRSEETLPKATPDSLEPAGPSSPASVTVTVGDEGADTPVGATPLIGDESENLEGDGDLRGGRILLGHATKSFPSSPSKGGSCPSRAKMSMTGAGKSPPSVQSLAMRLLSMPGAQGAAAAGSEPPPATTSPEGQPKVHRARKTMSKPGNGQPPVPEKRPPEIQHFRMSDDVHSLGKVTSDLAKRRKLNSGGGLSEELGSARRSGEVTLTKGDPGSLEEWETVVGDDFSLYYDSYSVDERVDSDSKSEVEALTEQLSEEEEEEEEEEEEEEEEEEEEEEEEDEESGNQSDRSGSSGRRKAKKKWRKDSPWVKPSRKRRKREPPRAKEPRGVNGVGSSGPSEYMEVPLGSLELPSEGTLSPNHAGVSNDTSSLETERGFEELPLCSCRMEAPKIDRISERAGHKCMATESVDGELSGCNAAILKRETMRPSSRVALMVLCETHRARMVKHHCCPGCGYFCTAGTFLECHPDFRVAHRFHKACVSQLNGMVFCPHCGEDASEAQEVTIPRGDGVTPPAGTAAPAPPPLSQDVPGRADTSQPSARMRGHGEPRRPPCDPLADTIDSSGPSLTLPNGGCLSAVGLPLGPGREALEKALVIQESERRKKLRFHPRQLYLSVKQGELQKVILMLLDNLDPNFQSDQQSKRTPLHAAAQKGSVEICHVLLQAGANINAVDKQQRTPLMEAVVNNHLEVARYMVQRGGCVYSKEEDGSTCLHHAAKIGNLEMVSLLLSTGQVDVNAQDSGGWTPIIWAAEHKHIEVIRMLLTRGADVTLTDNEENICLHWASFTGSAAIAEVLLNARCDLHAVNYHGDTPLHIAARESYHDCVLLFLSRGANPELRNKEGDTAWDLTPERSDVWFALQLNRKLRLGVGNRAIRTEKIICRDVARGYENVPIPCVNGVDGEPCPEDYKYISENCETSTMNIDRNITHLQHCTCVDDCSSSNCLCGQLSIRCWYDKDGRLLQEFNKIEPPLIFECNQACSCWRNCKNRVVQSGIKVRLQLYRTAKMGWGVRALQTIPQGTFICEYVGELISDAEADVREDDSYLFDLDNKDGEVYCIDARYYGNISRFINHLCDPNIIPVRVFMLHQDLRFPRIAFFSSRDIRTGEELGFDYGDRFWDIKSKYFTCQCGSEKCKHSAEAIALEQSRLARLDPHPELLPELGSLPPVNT
Summary of the method: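 Compounds were preincubated with 20 nM G9a for 15 min, after which biotinylated H3K9 peptide (500 nM) and SAM (20 uM) started a 2 h room-temperature reaction. Monomethylated product was quantified by antibody-based AlphaScreen chemiluminescence.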
On the % scale 0 is the no-effect control and ±100 the full control effect; potency means the concentration at half of the fitted maximal effect; tags describe the fitted curve by direction and shape.

| SMILES | Potency | activity, negative = inhibition |
| --- | --- | --- |
| Cc1ccc(N(C(C)C(=O)O)S(=O)(=O)c2c(C)[nH]c(=O)[nH]c2=O)cc1 (configuration not stated) | inconclusive: 89.1 µM [inhibitor, partial curve, poor fit] | – |
| Cc1c(S(=O)(=O)Nc2cccc3ccccc23)c(=O)n(C)c(=O)n1C | inactive | – |
| O=C(NCCCN1CCCC1)c1ccc2c(c1)N(Cc1ccccc1F)C(=O)c1ccccc1S2(=O)=O | inconclusive: 89.1 µM [inhibitor, single point] | – |
| COc1ccc2c(c1)[C@H]1[C@H](CO2)[C@H](c2ccccc2)[C@]2(C)C(=O)N(CC3CCCO3)CC(=O)N12 (some centres not stated) | – | inactive: 0.0538% [at 0.501 µM] |
| O=C(c1ccc2ccccc2n1)N1CCN(c2ccccc2)CC1 | inactive | – |
| O=C(NCc1nnc(SCc2ccc(F)cc2)n1-c1ccc(F)cc1)C12CC3CC(CC(C3)C1)C2 | inconclusive: 70.8 µM [inhibitor, single point] | – |
| CCOc1ccc(S(=O)(=O)Nc2nc3ccc(OC)cc3s2)cc1 | inconclusive: 3.16 µM [inhibitor, full curve] | – |
| Cn1cc(Br)c(C(=O)Nc2sc3c(c2C(N)=O)CCC3)n1 | inconclusive: 35.5 µM [inhibitor, partial curve, poor fit] | – |
| COc1ccc(C2(c3ccc(OC)cc3)NC(=O)NC2=O)cc1 | inconclusive: 89.1 µM [inhibitor, single point] | – |
| CC1CCC2(CC1)NC(=O)N(CC(=O)NC(C)c1ccc(F)c(F)c1)C2=O (configuration not stated) | – | inactive: -4.5% [at 2.33 µM] |
| Cc1cc(C)c(C#N)c(SCC(=O)c2cccs2)n1 | – | inactive: 27% [at 2.33 µM] |
| CCCc1[nH]nc2c1C(c1ccc(OC(=O)N3CCOCC3)c(OC)c1)C(C#N)=C(N)O2 (configuration not stated) | inconclusive: 39.8 µM [inhibitor, partial curve, poor fit] | – |
| COc1cc(OC)c(NC(=O)C(C)n2nc(-c3ccc(C)c(C)c3)ccc2=O)cc1Cl (configuration not stated) | inconclusive: 25.1 µM [inhibitor, partial curve, poor fit] | – |
| CCN(CC(=O)NCc1ccc(F)cc1)C(=O)c1ccc(C(=O)c2ccccc2)cc1 | inactive | – |
| CN(C(=O)COC(=O)c1c2c(nc3ccccc13)CCCC2)c1c(N)n(Cc2ccccc2)c(=O)[nH]c1=O | inconclusive: 39.8 µM [inhibitor, partial curve, poor fit] | – |
| Cc1ccc(C(=O)OCC(=O)Nc2ncc(Cl)cc2Cl)cc1NC(=O)c1ccco1 | active: 44.7 µM | – |
| COc1cc([N+](=O)[O-])ccc1N=Nc1c(N)[nH]n(-c2ccccc2)c1=O | active: 50.1 µM | – |
